According to the supplement of paper PMC4967469:

Key:
Test in all cases: Viability of human cancer cell lines after 72 h of drug (GDSC screen)
GDC0941 = compound: CS(=O)(=O)N1CCN(Cc2cc3nc(-c4cccc5[nH]ncc45)nc(N4CCOCC4)c3s2)CC1 [GDC0941]; conditions: top dose 4 µM; screen: GDSC drug entry 1527; top dose inferred
Method: (§1)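 Human cancer cell lines in 384-well plates, medium with 10% serum, drug for 72 h over a 256-fold dose range (nine 2-fold or five 4-fold steps up to the top dose). Adherent lines were fixed and stained with the nucleic acid dye Syto60, suspension lines read with resazurin; signal relative to control wells, capped at 0 and 100%. One two-parameter sigmoid per drug and line, fitted in a mixed model over all curves with the slope shared within a line.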

CEP-701 = compound: C[C@]12O[C@H](C[C@]1(O)CO)n1c3ccccc3c3c4c(c5c6ccccc6n2c5c31)CNC4=O [CEP-701]; conditions: top dose 2 µM; top dose inferred
Method: as §1

AR-42 = compound: CC(C)[C@H](C(=O)Nc1ccc(C(=O)NO)cc1)c1ccccc1 [AR-42]; conditions: top dose 5.12 µM; top dose inferred
Method: as §1

SB 216763 = compound: Cn1cc(C2=C(c3ccc(Cl)cc3Cl)C(=O)NC2=O)c2ccccc21 [SB 216763]; conditions: top dose 10 µM; top dose inferred
Method: as §1

Pazopanib = compound: Cc1ccc(Nc2nccc(N(C)c3ccc4c(C)n(C)nc4c3)n2)cc1S(N)(=O)=O [Pazopanib]; conditions: top dose 8 µM
Method: as §1

MG-132 = compound: CC(C)C[C@@H](C=O)NC(=O)[C@H](CC(C)C)NC(=O)[C@H](CC(C)C)NC(=O)OCc1ccccc1 [MG-132]; conditions: top dose 1 µM
Method: as §1

HCC1500 (breast, adherent)
AUC (GDC0941): 0.949 | IC50 (GDC0941): > 4000 nM | AUC (CEP-701): 0.965 | IC50 (CEP-701): > 2000 nM | AUC (AR-42): 0.526 | IC50 (AR-42): 378 nM | AUC (SB 216763): 0.983 | IC50 (SB 216763): > 10000 nM | AUC (Pazopanib): 0.943 | IC50 (Pazopanib): > 8000 nM | AUC (MG-132): 0.953 | IC50 (MG-132): > 1000 nM

NMC-G1 (glioma, adherent)
AUC (GDC0941): 0.807 | IC50 (GDC0941): 2630 nM | AUC (CEP-701): 0.668 | AUC (AR-42): 0.707 | IC50 (AR-42): 1420 nM | AUC (SB 216763): 0.854 | IC50 (SB 216763): > 10000 nM | AUC (Pazopanib): 0.784 | IC50 (Pazopanib): 4230 nM | AUC (MG-132): 0.821 | IC50 (MG-132): 759 nM

K5 (thyroid, adherent)
AUC (GDC0941): 0.586 | IC50 (GDC0941): 425 nM | AUC (CEP-701): 0.435 | IC50 (CEP-701): 83.8 nM | AUC (AR-42): 0.594 | IC50 (AR-42): 572 nM | AUC (SB 216763): 0.966 | IC50 (SB 216763): > 10000 nM | AUC (Pazopanib): 0.976 | IC50 (Pazopanib): > 8000 nM | AUC (MG-132): 0.879 | IC50 (MG-132): 952 nM

MLMA (hairy cell leukaemia, semi-adherent)
AUC (GDC0941): 0.496 | IC50 (GDC0941): 244 nM | AUC (CEP-701): 0.532 | IC50 (CEP-701): 153 nM | AUC (AR-42): 0.313 | IC50 (AR-42): 95.5 nM | AUC (SB 216763): 0.986 | IC50 (SB 216763): > 10000 nM | AUC (Pazopanib): 0.935 | IC50 (Pazopanib): > 8000 nM | AUC (MG-132): 0.95 | IC50 (MG-132): > 1000 nM

SHP-77 (small cell lung carcinoma, semi-adherent)
AUC (GDC0941): 0.99 | IC50 (GDC0941): > 4000 nM | AUC (CEP-701): 0.889 | IC50 (CEP-701): 1850 nM | AUC (AR-42): 0.694 | IC50 (AR-42): 1040 nM | AUC (SB 216763): 0.991 | IC50 (SB 216763): > 10000 nM | AUC (Pazopanib): 0.982 | IC50 (Pazopanib): > 8000 nM | AUC (MG-132): 0.956 | IC50 (MG-132): > 1000 nM

COLO-668 (small cell lung carcinoma, adherent)
AUC (GDC0941): 0.929 | IC50 (GDC0941): > 4000 nM | AUC (CEP-701): 0.981 | IC50 (CEP-701): > 2000 nM | AUC (AR-42): 0.61 | IC50 (AR-42): 641 nM | AUC (SB 216763): 0.989 | IC50 (SB 216763): > 10000 nM | AUC (Pazopanib): 0.981 | IC50 (Pazopanib): > 8000 nM | AUC (MG-132): 0.981 | IC50 (MG-132): > 1000 nM

TK (B-cell lymphoma, suspension)
AUC (GDC0941): 0.873 | IC50 (GDC0941): 3260 nM | AUC (CEP-701): 0.615 | IC50 (CEP-701): 252 nM | AUC (AR-42): 0.408 | IC50 (AR-42): 183 nM | AUC (SB 216763): 0.99 | IC50 (SB 216763): > 10000 nM | AUC (Pazopanib): 0.961 | IC50 (Pazopanib): > 8000 nM | AUC (MG-132): 0.802 | IC50 (MG-132): 440 nM

SF539 (glioma, adherent)
AUC (GDC0941): 0.81 | IC50 (GDC0941): 1840 nM | AUC (CEP-701): 0.57 | IC50 (CEP-701): 190 nM | AUC (AR-42): 0.607 | IC50 (AR-42): 611 nM | AUC (SB 216763): 0.935 | IC50 (SB 216763): > 10000 nM | AUC (Pazopanib): 0.972 | IC50 (Pazopanib): > 8000 nM | AUC (MG-132): 0.989 | IC50 (MG-132): > 1000 nM

KELLY (neuroblastoma, adherent)
AUC (GDC0941): 0.776 | IC50 (GDC0941): 1440 nM | AUC (CEP-701): 0.397 | IC50 (CEP-701): 67 nM | AUC (AR-42): 0.398 | IC50 (AR-42): 173 nM | AUC (SB 216763): 0.958 | IC50 (SB 216763): > 10000 nM | AUC (Pazopanib): 0.983 | IC50 (Pazopanib): > 8000 nM | AUC (MG-132): 0.737 | IC50 (MG-132): 274 nM

ML-2 (acute myeloid leukaemia, suspension)
AUC (GDC0941): 0.867 | IC50 (GDC0941): 2960 nM | AUC (CEP-701): 0.619 | IC50 (CEP-701): 255 nM | AUC (AR-42): 0.505 | AUC (SB 216763): 0.979 | IC50 (SB 216763): > 10000 nM | AUC (Pazopanib): 0.962 | IC50 (Pazopanib): > 8000 nM | AUC (MG-132): 0.597 | IC50 (MG-132): 112 nM

By IC50 is meant the dose at which the fit gives 50% viability; a fit beyond the top or the lowest dose is shown as a bound at that dose. AUC sums up the same curve from the lowest dose to the 256-fold higher top dose; it is 1 without any effect and falls as sensitivity rises. For some of these results: The top dose, if marked as inferred, is not printed in the source and was worked back from the curve model. For some of these results: An entry number marks a drug with two screens in the source, which often give different values.
